{"source": "the supplement of paper PMC4723716", "note": "Whole data set: some 3,600 compounds, median “viability index relative to DMSO control” near 0.81, cut for the lowest 2% near 0.13. The list shows a part of the results.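 Further: 384-well serum-free SaLSSA: MitoTracker Red CMXRos staining with saponin lysis, high-content imaging, treated-well particle count divided by plate-mean count of DMSO wells.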"}
{"test_system": "Plasmodium falciparum NF54 stage V gametocytes", "assay": "viability index relative to DMSO control (fraction); higher = less gametocyte killing", "conditions": "1.25 µM, incubation time: 72 h"}
{"smiles": "CN(CCCNc1ccnc2cc(Cl)ccc12)C(=O)COc1ccc(Cl)cc1", "viability index": 0.595}
{"smiles": "Cn1nc(C(=O)NCc2ccccc2)c2c1CCN(Cc1cccc(O)c1)C2", "viability index": 1.27}
{"smiles": "COc1ccc(NC(=O)C2=C(C)NC(=S)NC2c2ccc(O)cc2)cc1", "note": "(stereo unspecified)", "viability index": 0.878}
{"smiles": "CCOC(=O)C1=C(C)NC2=C(C(=O)CC(c3ccc(OC)c(OC)c3)C2)C1c1ccccc1C", "note": "(stereo unspecified)", "viability index": 0.463}
{"smiles": "Cc1[nH]c2ccccc2c(=O)c1Br", "viability index": 0.596}
{"smiles": "COc1cc(OC)c(NC(=O)C2c3ccccc3C(=O)N(C)C2c2cccs2)cc1Cl", "note": "(stereo unspecified)", "viability index": 0.546}
{"smiles": "CCOC(=O)c1cnc2ccc(Cl)cc2c1Nc1ccc(OC)c(OC)c1", "viability index": 0.977}
{"smiles": "Cn1c(=O)[nH]c(=O)c2c1nc(N1CCCCCC1)n2CC(O)COc1ccc([N+](=O)[O-])cc1", "note": "(stereo unspecified)", "viability index": 0.942}
{"smiles": "CCCSCCCNC(=O)c1oc2c(c1C)-c1[nH]ncc1CC2", "viability index": 0.714}
{"smiles": "Cc1ccc(-n2nnnc2SCc2nc(-c3cccc([N+](=O)[O-])c3)no2)c(C)c1", "viability index": 0.78}
{"smiles": "COc1ccc2[nH]c3c(NCCN4CCCCC4)ncnc3c2c1", "viability index": 1.04}
{"smiles": "S=C(NN=Cc1ccccn1)NC1CC2CC1C1C=CCC21", "note": "(stereo unspecified)", "viability index": 0.397}
{"smiles": "O=C(CN1CCCC1)Nc1ccc(Cc2ccc(NC(=O)CN3CCCC3)cc2)cc1", "viability index": 0.914}
{"smiles": "Clc1ccc(C2Nc3ccc4ccccc4c3C3C=CCC32)c(Cl)c1", "note": "(stereo unspecified)", "viability index": 0.913}
{"smiles": "O=C(NNC(=O)c1csnn1)c1ccc(C(F)(F)F)cc1", "viability index": 0.815}
{"smiles": "CCN1CCN(c2cc(C)c3cc(NC(=O)c4cccc([N+](=O)[O-])c4)ccc3n2)CC1", "viability index": 0.859}
{"smiles": "CC1=C(C(=O)Nc2ccc(C)cc2C)C(c2ccc([N+](=O)[O-])cc2)n2ncc(C(=O)Nc3ccc(F)cc3)c2N1", "note": "(stereo unspecified)", "viability index": 0.639}
{"smiles": "CCC(C)(C)n1nnnc1C(c1cc2cc(C)cc(C)c2[nH]c1=O)N1CCN(c2ccc(O)cc2)CC1", "note": "(stereo unspecified)", "viability index": 0.771}
{"smiles": "COc1cccc(CN2CCN(C(c3ccccc3)c3ccccc3)CC2)c1O", "viability index": 0.718}
{"smiles": "CCOC(=O)c1ccc(N2CCN(c3cc(C)ccc3C)CC2)c(NC(=O)Nc2ccc(Cl)cc2)c1", "viability index": 0.826}
{"smiles": "O=C(Nc1ccc(Oc2ccc(OC(F)(F)F)cc2)cc1)C1CC1", "viability index": 0.693}
{"smiles": "CCc1ccc2c(c1)c1nnc(SCC(=O)NCCOC)nc1n2C", "viability index": 0.841}
{"smiles": "Oc1c2c(nc3cc(-c4ccc(Br)cc4)nn13)CCCC2", "viability index": 0.677}
{"smiles": "Brc1ccc(-c2cn3c([n+]2Cc2ccccc2)SCCC3)cc1", "viability index": 0.509}
{"smiles": "Oc1c(CN2CCN(Cc3ccc4cccnc4c3O)CC2)ccc2cccnc12", "viability index": 0.601}
{"smiles": "O=C1CSC2=NCN(c3cccc(Cl)c3)CN12", "viability index": 0.781}
{"smiles": "CCCCNCC(O)(c1ccc(Cl)cc1)c1ccc(Cl)cc1", "viability index": 0.724}
{"smiles": "CCN(CC)CCCNC(=S)N(Cc1ccc(F)cc1)Cc1cc2cc(C)cc(C)c2[nH]c1=O", "viability index": 0.76}
{"smiles": "Oc1ccc(Nc2nc(NCc3ccco3)c3ccccc3n2)cc1", "viability index": 0.727}
{"smiles": "CCc1ccccc1N=C1c2c(cccc2[N+](=O)[O-])C(=O)C1C(C)=O", "note": "(stereo unspecified)", "viability index": 0.759}
{"smiles": "Cc1nc2c(c(C)nn2C)c(C)c1CCC(=O)N1CCCC1", "viability index": 1.09}
{"smiles": "CC(=NNC(=N)N)c1ccc(C)cc1", "viability index": 0.992}
{"smiles": "Cc1ccc(O)c(C(=O)c2c[nH]c(-c3nc4ccccc4[nH]3)c2)c1", "viability index": 0.147}
{"smiles": "CCCCOc1ccc(N(C(C)=O)C2=C(N3CCCCC3)C(=O)c3ccccc3C2=O)cc1", "viability index": 0.301}
{"smiles": "O=[N+]([O-])c1cc(C(F)(F)F)cc([N+](=O)[O-])c1Sc1cccc2cccnc12", "viability index": 0.0789}
{"smiles": "O=C(Nc1ccc2c(c1)CN(C1CCSCC1)CC2)C1(c2ccccc2)CC1", "viability index": 0.952}
{"smiles": "Cc1cc(Nc2ccc(Br)cc2)n2nc(C)nc2n1", "viability index": 0.865}
{"smiles": "CSc1cccc(NC(=O)C2C3C=CC4(O3)C2C(=O)N(C2CC2)C4C(=O)NC2CCCCC2)c1", "note": "(stereo unspecified)", "viability index": 1.16}
{"smiles": "COC(=O)c1ccc(N(C(=O)Cc2c[nH]c3ccccc23)C(C(=O)NC2CCCCC2)c2ccccc2F)cc1", "note": "(stereo unspecified)", "viability index": 0.96}
{"smiles": "O=C(Nc1ccc2nc3n(c(=O)c2c1)CCCCC3)C(=O)N1CCN(c2cccc(Cl)c2)CC1", "viability index": 0.432}
{"smiles": "CC1CCN(Cc2c(O)ccc3cc(-c4nc5ccccc5s4)c(=O)oc23)CC1", "viability index": 0.792}
{"smiles": "Nc1nc(Nc2cccc(Cl)c2)n[nH]1", "viability index": 0.673}
{"smiles": "O=C(CNCCc1ccccc1)NC(c1ccccc1)c1ccccc1", "viability index": 0.761}
{"smiles": "CC(C)Nc1ccc(Nc2ccnc3cc4ccccc4cc23)cc1", "viability index": 0.484}
{"smiles": "CCc1nn(-c2ccccc2)c2nc(-c3cc(Br)ccc3O)c3cc(OC)c(OC)cc3c12", "viability index": 0.707}
{"smiles": "COc1cc(OC)cc(N2C(=O)N(Cc3ccc(C(C)(C)C)cc3)c3ccccc3S2(=O)=O)c1", "viability index": 0.9}
{"smiles": "Cc1ccc(C2Sc3ccccc3N=C3C2=C(O)c2ccccc23)cc1", "note": "(stereo unspecified)", "viability index": 0.633}
{"smiles": "OC(CNC1CCCCC1)Cn1c2ccccc2c2ccccc21", "note": "(stereo unspecified)", "viability index": 0.585}
{"smiles": "Brc1ccc2[nH]c3c(NCCCN4CCOCC4)ncnc3c2c1", "viability index": 0.722}
{"smiles": "COc1cccc(C2C(C(=O)Nc3ccccc3)=C(C)N=c3sc(=Cc4c[nH]c5ccccc45)c(=O)n32)c1", "note": "(stereo unspecified)", "viability index": 1.19}
{"smiles": "O=C(C1CCC(Cn2c(=S)[nH]c3ccccc3c2=O)CC1)N1CC=C(c2ccccc2)CC1", "note": "(stereo unspecified)", "viability index": 1.31}
{"smiles": "O=C(Nc1nccs1)c1cc(-c2cccnc2)nc2ccc(Br)cc12", "viability index": 1.05}
{"smiles": "COCCN1C(=O)c2ccccc2C(C(=O)Nc2cccc(C(F)(F)F)c2)C1c1cccs1", "note": "(stereo unspecified)", "viability index": 1.08}
{"smiles": "CCOc1ccc(C(=O)Nc2cccc(-c3nc4cc(C)ccc4o3)c2C)cc1", "viability index": 1.03}
{"smiles": "C=CCNC(=O)c1cc(OCc2ccccc2)c(OCc2ccccc2)c(OCc2ccccc2)c1", "viability index": 0.81}
{"smiles": "COc1cc2nc(NCc3ccccc3)n3nc(-c4cccnc4)nc3c2cc1OC", "viability index": 0.863}
{"smiles": "COc1ccc(C=Cc2ccc3ccccc3[n+]2C)cc1OC", "viability index": 0.721}
{"smiles": "CCOC(=O)C1=CN(c2cc(C)ccc2C)C=C(C(=O)OCC)C1c1ccccc1OC", "viability index": 0.66}
{"smiles": "CCN1CCN(CCCNC(=S)Nc2ccc3nc(N4CCCC4)cc(C)c3c2)CC1", "viability index": 0.817}
{"smiles": "OCCNc1nc(Nc2ccccc2)nc2ccccc12", "viability index": 0.743}
{"smiles": "COc1cccc2c(C)nc(NC(=N)N)nc12", "viability index": 1.05}
{"smiles": "Nc1ccc(N2CCCCCC2)cc1", "viability index": 0.917}
{"smiles": "COc1ccc(C2=C(Nc3ccc(Br)c(C)c3)c3ccccc3C2=O)cc1", "viability index": 0.542}
{"smiles": "COc1ccc(NS(=O)(=O)c2cccc(C(=O)Nc3ccccc3[N+](=O)[O-])c2)cc1", "viability index": 0.79}
{"smiles": "FC(F)(F)c1ccc(Nc2nnnc3ccccc23)cc1", "viability index": 1.04}
{"smiles": "Cc1cc(C)c2c(c1)-c1c(ssc1=S)C(C)(C)N2C(=O)c1ccccc1", "viability index": 0.74}
{"smiles": "O=C(Nc1ccccc1)c1ccccc1OCC(O)Cn1c2ccccc2c2ccccc21", "note": "(stereo unspecified)", "viability index": 0.981}
{"smiles": "CCOC(=O)c1c(NC(C)=O)sc2c(O)c(CNC3CCCCC3)ccc12", "viability index": 0.261}
{"smiles": "O=C(c1cc2nc(-c3ccccc3)cc(C(F)(F)F)n2n1)N1CCN(Cc2ccccc2)CC1", "viability index": 1.01}
{"smiles": "O=[N+]([O-])c1cccc(C(O)CNCc2ccc3c(c2)OCO3)c1", "note": "(stereo unspecified)", "viability index": 0.676}
{"smiles": "CC(C)CN1C(=O)c2ccccc2C(C(=O)Nc2cccc(C(F)(F)F)c2)C1c1cccs1", "note": "(stereo unspecified)", "viability index": 0.301}
{"smiles": "CN1CCN(c2nc(NN=Cc3cccc(Cl)c3)nc(Nc3ccc([N+](=O)[O-])cc3)n2)CC1", "viability index": 0.462}
{"smiles": "CN1C(=CC=Cc2oc3ccccc3[n+]2C)Oc2ccccc21", "viability index": 0.594}
{"smiles": "COC(=O)C1CCCN1S(=O)(=O)c1ccc2ccccc2c1", "note": "(stereo unspecified)", "viability index": 1.05}
{"smiles": "CCOC(=O)C1=C(C)NC2=C(C(=O)C(C(=O)OCC)C(c3cccc(OC)c3)C2)C1c1cc(OC)c(OC)c(OC)c1", "note": "(stereo unspecified)", "viability index": 1.06}
{"smiles": "CC(=O)N(C1=C(N2CCCCC2)C(=O)c2ccccc2C1=O)c1ccc(F)c(F)c1", "viability index": 0.837}
{"smiles": "CC(Nc1ccccc1)C(=O)Nc1cc(C(F)(F)F)ccc1Cl", "note": "(stereo unspecified)", "viability index": 0.902}
{"smiles": "COc1cc(OC)c(NC(=O)C2c3ccccc3C(=O)N(CC(C)C)C2c2cccs2)cc1Cl", "note": "(stereo unspecified)", "viability index": 0.0683}
{"smiles": "Cc1ccc(C)c(Oc2c(C(F)(F)F)oc3c(CN4CCN(C)CC4)c(O)ccc3c2=O)c1", "viability index": 0.467}
{"smiles": "OCc1nc2ccccc2n1Cc1ccccc1F", "viability index": 1.15}
{"smiles": "CCOC(=O)C1=C(C)NC(=Cc2cc(C)n(-c3cccc(Br)c3)c2C)C1=O", "viability index": 0.463}
{"smiles": "O=C(Nc1nc2ccccc2s1)c1ccc(S(=O)(=O)N2CCOCC2)cc1", "viability index": 1.39}
{"smiles": "OC(CN1CCN(Cc2ccccc2)CC1)Cn1c2ccc(Cl)cc2c2cc(Cl)ccc21", "note": "(stereo unspecified)", "viability index": 0.394}
{"smiles": "C[n+]1ccc(C=Cc2c[nH]c3ccccc23)cc1", "viability index": 0.78}
{"smiles": "CCOc1ccc(NC(=O)C(C)Sc2nc3ccccc3[nH]2)cc1", "note": "(stereo unspecified)", "viability index": 0.906}
{"smiles": "CCC(C)(C)c1ccc(OCCCC[n+]2ccc(C)cc2)c(C(C)(C)CC)c1", "viability index": 0.551}
{"smiles": "CC(=O)N(C1=C(N2CCC(C)CC2)C(=O)c2ccccc2C1=O)c1cccc(F)c1", "viability index": 0.892}
{"smiles": "O=C(Nc1ccc2c(c1)OCO2)c1cc2cc(C3(O)CCN(CC4CCCCC4)CC3)ccc2o1", "viability index": 1.06}
{"smiles": "Cc1ccccc1Oc1ccc(S(=O)(=O)NC(CC(C)C)C(=O)O)cc1", "note": "(stereo unspecified)", "viability index": 0.504}
{"smiles": "CC(=O)Nc1ccc2c(c1)CCCC2", "viability index": 1.08}
{"smiles": "Cc1ccc(NC(=O)C2c3ccccc3C(=O)N(CC(C)C)C2c2cccs2)c(Cl)c1", "note": "(stereo unspecified)", "viability index": 0.289}
